The supplement of paper PMC10338343
± gives the standard deviation. The full ranking holds about 3,000 sequences; the median of “pre-steady-state target cleavage rate” is about 0.0079, and the highest 2% start at about 0.2. This is a selection; strong and weak results do not stand in their true shares.

Each sequence was assayed on MILI (PIWIL2) piRISC loaded with piRNA #2 (26 nt) (assay: pre-steady-state target cleavage rate (min^-1); MIWI and MILI are mouse PIWI proteins and EfPiwi is from a freshwater sponge; tags in brackets are library labels; higher = faster piRNA-guided slicing of the target). Settings: guide: piRNA #2 5'p-UUAGGUAACCCAGUAGAUCCAGAGGA; auxiliary factor: 500 nM mouse GTSF1.
Method in brief: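 In HEPES–potassium acetate buffer at 33 °C, […] transcribed, DNA-blocked target RNA library was mixed with 1 nM active affinity-purified piRISC carrying one synthetic guide, with or without 500 nM GTSF1 partner protein, for 0–8 or 0–960 min. Uncleaved targets were sequenced and normalised to depth and to weakly complementary targets; three trials were pooled and k3 was capped at 0.0001 min^-1. The pre-steady-state cleavage rate followed from a burst-and-steady-state fit.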
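Further: 1 nM active piRISC with 0.1 nM target library at 33 °C single turnover.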

| Sequence | pre-steady-state target cleavage rate |
| --- | --- |
| CUUAUCCUCUGGAUCUACUAGGUUACCUAA | 0.0905 ± 0.022 |
| CUUAAGCUCUGGAUCUACUGGGUUGACCUAA | 0.0696 ± 0.016 |
| CUUAAGGACUGGAUCCACUGGGUUACCUAA | 0.0312 ± 0.011 |
| CUUAAGGUGAGGAUCUACUGGGUUACCUAA | 0.0111 ± 0.0062 |
| CUUAAGGACUGGAUCUACAGGGUUUCCUAA | 0.0339 ± 0.011 |
| CUUAAGCUCUGGAUCUACUGGGUUACCGUAA | 0.0837 ± 0.022 |
| CUUAACCUGUGGAUCUACUGGGUUACGUAA | 0.0174 ± 0.0059 |
| CUUAAGGUGUGGAUCUACUGGGUUUCCUAA | 0.0102 ± 0.0047 |
| CUUAAGCUCUGGUUCAACUGGGUUACCUAA | 0.0564 ± 0.015 |
| CUUAACCUCUGCGAUCUACUGGGUUACCUAA | 0.0963 ± 0.019 |
| CUUAAGGAGUGGAUCUACUGGGUUACCUGAA | 0.0258 ± 0.015 |
| CUUAAGGAGAGGACCUACUGGGUUACCUAA | 0.00708 ± 0.0031 |
| CUUAUCCACUGGAUCUACUGGGUUACGUAA | 0.0135 ± 0.0041 |
| CUUAAGCUCUGGAUCUACUGGGUUAGCAAA | 0.0664 ± 0.023 |
| CUUAAGCACUGGAUCUACUGGGUAACCUAA | 0.0343 ± 0.012 |
| CUUAACCUCUGGAUCUACUGGGUAACCUAA | 0.0814 ± 0.021 |
| CUUAAGCUCUCGGAUCUACUGGGUUACCUAA | 0.064 ± 0.015 |
| CUUAAGCUCUGGAUCUACUGGGUUACCUAC [g2:g24:cont:t1C] | 0.0429 ± 0.012 |
| CUUAAGCUCUGGAUCUUCAGGGUUACCUAA | 0.0336 ± 0.0066 |
| CUUAAGGUCUGGAUCUACUGGGUUACCUAAA | 0.0897 ± 0.019 |
| CUUAACCUCUGGAUCUAGUGGGUUACCUAA | 0.0781 ± 0.015 |
| CUUAAGGACUGGAUCAACUGGGUUACCUAA | 0.017 ± 0.013 |
| CUUAAGGUCUGGAUCAACUGGGUAACCUAA | 0.00828 ± 0.0054 |
| CUUAAGGUCAGGAACUACUGGGUUACCUAA | 0.0113 ± 0.0075 |

| Sequence | pre-steady-state target cleavage rate |
| --- | --- |
| CUUAACCUCUGGAUCUACCGGGUUACCUAA | 0.0865 ± 0.029 |
| CUUAUCGUCUGCAUCUACUGGGUUACCUAA | 0.115 ± 0.018 |
| CUUAAGGUCUCGAUCUACUGCGUUACCUAA | 0.00857 ± 0.0044 |
| CUUAAGCUCUGGAUGUACUGGGUAACCUAA | 0.0209 ± 0.0076 |
| CUUAUCCGCUGGAUCUACUGGGUUACCUAA | 0.113 ± 0.017 |
| CUUAAGGAGAGGAUCUACUGGGUAUACCUAA | 0.00494 ± 0.0048 |
| CUUAAGGAGUGGAUCUACUGGGUUAACCUAA | 0.0215 ± 0.0093 |
| CUUAAGGUCUGGAUCUUCUGGGUUACGUAA | 0.00936 ± 0.0036 |
| CUUAACCUCUGCAUCAACUGGGUUACCUAA | 0.0686 ± 0.016 |
| CUUAAGGACUGGAUCUACUGUGUUACCUAA | 0.00898 ± 0.0088 |
| CUUAAGGACUGGACCUACUGGGUUACCUAA | 0.0236 ± 0.0092 |
| CUUAAGGACUGGAUCUACUGGGUUUACCUAA | 0.0248 ± 0.015 |
| CUUAAGGUCUGGUAUCUACUGGGUUACCUAA | 0.0727 ± 0.016 |
| CUUAACCUCUGUGAUCUACUGGGUUACCUAA | 0.0857 ± 0.016 |
| CUUAAGGUCUGGAUCUACUGGGUUACACUAA | 0.106 ± 0.021 |
| CUUAACCUCUCGAUCUACAGGGUUACCUAA | 0.133 ± 0.015 |
| CUUAAGGAGAGGAUCUACUGGGUUACCGUAA | 0.00417 ± 0.004 |
| CUUAAGGUCUGCAUCUACUGGGUAACCUAA | 0.00707 ± 0.006 |
| CUUAAGGUCUGAGAUCUACUGGGUUACCUAA | 0.0683 ± 0.018 |
| CUUAAGCUCUGGAUCUACUGGGUUACGUUA | 0.07 ± 0.016 |
| CUUAACCUGACGAUCUACUGGGUUACCUAA | 0.0532 ± 0.02 |
| CUUAUCCUCUGGAUCUACUGGGUGACCUAA | 0.0696 ± 0.014 |
| CUUAAGCUCUGCGAUCUACUGGGUUACCUAA | 0.0353 ± 0.0099 |
| CUUAUGCUCAGGAUCUACUGGGUUACCUAA | 0.101 ± 0.017 |

| Sequence | pre-steady-state target cleavage rate |
| --- | --- |
| CUUAAGGAGUGGAUCUACUGGGUUACCUUAA | 0.0324 ± 0.011 |
| CUUAAGGAGUGCAUCUACUGGGUUACCUUA | 0.00692 ± 0.0052 |
| CUUAAGCUCUGGAUCUACUGGAUUACCUAA | 0.0281 ± 0.0081 |
| CUUAUCCUCUGGAUCUACUGGGAUACCAAA | 0.026 ± 0.011 |
| CUUAUCCUCUGGAUCUACUGGGUUACCAA | 0.123 ± 0.022 |
| CUUAUCCUCUCGAUCUACUGGGAUACCUAA | 0.0565 ± 0.013 |
| CUUAAGGAGAGGAACUACAGGGUUACCUAA | 0.00511 ± 0.0033 |
| CUUAAGCUGUGGAUCUACUGGGUUACCUUA | 0.0285 ± 0.014 |
| CUUAAGGAGUCGAUCUACUCGGUUACCUAA | 0.00291 ± 0.0026 |
| CUUAAGGAGACGAUUUACUGGGUUACCUAA | 0.00401 ± 0.0034 |
| CUUAAGGAGACCUAGAACUGGGUUACCAUA [g4:g14:cont:t1A] | < 0.0001 |
| CUUAAGCUCAGGAACUACUGGGUUACCUAA | 0.0602 ± 0.017 |
| CUUAACCUCUGGAUCUACAGGGUUACCUAA | 0.095 ± 0.015 |
| CUUAACCUCUGCAUCUACUGGGAUACCUAA | 0.0444 ± 0.022 |
| CUUAAGCUCUGGAUCUACUGGGUUACUCUAA | 0.098 ± 0.025 |
| CUUAAGGACUGGAACUACUGGGUUACCUUA | 0.0114 ± 0.011 |
| CUUAAGGUCUGGAUCUACUGCGUUACCUUA | 0.00674 ± 0.003 |
| CUUAAGCUCUGGAUACUACUGGGUUACCUAA | 0.0326 ± 0.011 |
| CUUAAGCUCUGGACUACUGGGUUACCUAA | 0.0618 ± 0.015 |
| CUUAAGGUCUGGAUCUACUGGGUUGCCUAA | 0.0571 ± 0.013 |
| CUUAACCUCUGGAUCAACUGGGUUACCAAA | 0.0814 ± 0.022 |
| CUUAAGGACUGGAUCUAGAGGGUUACCUAA | 0.0214 ± 0.0071 |
| CUUAAGGUCUGGUUCUACUGGGAUACCUAA | 0.0287 ± 0.014 |
| CUUAUCCUCAGGAUCUACUGGGUUUCCUAA | 0.0547 ± 0.017 |
